Experimental findings from publication PMC5501724, “Structural Basis for Specific Interaction of TGFβ Signaling Regulators SARA/Endofin with HD-PTP” (Structure(London, England:1993), 2017) are described below.

Substitutions are numbered along the chain they refer to. No constants are given. Whether binding was seen depends on the method and setting. Binding seen in cells or lysates may run through a third protein. Some binding calls cover weakened binding; strength is not graded here. For part of these data: Sequences can lack the tags named with a protein.

Test [1] deals with HA-HD-PTP (hemagglutinin-tagged HD-PTP, wild type) (human) (UniProt Q9H3S7). Briefly: co-IP; HA-tagged HD-PTP constructs expressed in cells; lysates in IP1 buffer (25 mM Tris-HCl pH 7.5, 40 mM NaCl, 0.5% IGEPAL); anti-HA immunoprecipitates blotted for endogenous endofin or SARA.
Test [2] deals with T1, HA-HD-PTP_(Bro1-CC) L202D, expressed in cells (human) (UniProt Q9H3S7).
T1 sequence: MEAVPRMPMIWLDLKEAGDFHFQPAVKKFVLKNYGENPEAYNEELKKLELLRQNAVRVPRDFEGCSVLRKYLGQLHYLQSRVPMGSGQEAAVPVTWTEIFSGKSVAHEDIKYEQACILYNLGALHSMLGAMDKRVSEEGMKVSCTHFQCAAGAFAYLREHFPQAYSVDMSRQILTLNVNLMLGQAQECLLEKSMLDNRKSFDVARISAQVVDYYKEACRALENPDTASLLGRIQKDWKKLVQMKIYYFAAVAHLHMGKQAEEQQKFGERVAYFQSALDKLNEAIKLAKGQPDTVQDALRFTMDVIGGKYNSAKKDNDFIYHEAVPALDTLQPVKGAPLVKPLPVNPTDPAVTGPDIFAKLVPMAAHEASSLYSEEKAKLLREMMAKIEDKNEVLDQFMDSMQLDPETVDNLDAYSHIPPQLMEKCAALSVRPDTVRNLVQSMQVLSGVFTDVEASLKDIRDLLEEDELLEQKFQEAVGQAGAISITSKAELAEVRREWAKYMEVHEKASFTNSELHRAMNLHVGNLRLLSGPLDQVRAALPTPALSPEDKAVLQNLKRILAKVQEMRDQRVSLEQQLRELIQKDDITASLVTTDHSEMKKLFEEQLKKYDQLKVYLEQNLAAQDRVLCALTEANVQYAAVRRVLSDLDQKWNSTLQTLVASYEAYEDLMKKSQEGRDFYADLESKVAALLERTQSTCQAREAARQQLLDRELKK
The description is as above.

Test [3] has as its target T2, HA-HD-PTP_(Bro1-CC) T145K, expressed in cells (human) (UniProt Q9H3S7).
T2 sequence: T1 sequence with T145K, D202L
The test is described as above.

Test [4] addresses T3, HA-HD-PTP_(Bro1-CC) wild-type, expressed in cells (human) (UniProt Q9H3S7).
T3 sequence: T1 sequence with D202L
The test is described as above.

The target in test [5] is T4, His6HD-PTP_(Bro1-CC) L202D, in vitro co-translated (human) (UniProt Q9H3S7).
T4 sequence: T1 sequence
Briefly: co-IP; endofin(1–84) and His6HD-PTP Bro1-CC (wild type and mutants) co-translated in vitro, then immunoprecipitated with anti-His (Figure S3).

Test [6] addresses T5, His6HD-PTP_(Bro1-CC) wild-type, in vitro co-translated (human) (UniProt Q9H3S7).
T5 sequence: T1 sequence with D202L
The description is as above.

With “endogenous endofin (from UniProt Q7Z3T8 1-1539)”, the binding entry in test [1] is recorded as “binds”; in test [2], “no binding”; in test [3], “no binding”; in test [4] it was “binds”.

B1: endofin_(1–84)-strep, in vitro translated (domain or fragment, UniProt Q7Z3T8 1-84)
chain: MDSYFKAAVSDLDKLLDDFEQNPDEQDYLQDVQNAYDSNHCSVSSELASSQRTSLLPKDQECVNSCASSETSYGTNESSLNEKT
modifications: 35S-methionine
With B1, the results for the binding result in test [5] and in test [6] were “no binding” and “binds”, respectively.
